Columns and labels:
Test in all cases: pull-down; biotinylated peptides saturating streptavidin beads (10 uL); 1 ug GST-tagged recombinant protein; detected by western blotting with an antibody against the GST tag
Conditions in all cases: both partners purified
[1] = target: T1, GST-tagged 2AAB full length (Serine/threonine-protein phosphatase 2 A 65 kDa regulatory subunit A beta … (UniProt P30154 1-601))
T1 construct: Serine/threonine-protein phosphatase 2A 65 kDa regulatory subunit A beta isoform, full length, 1-601 aa; Expressed from pGEX-6p-1 as N-terminal GST fusion; detected by an antibody against the GST tag; source: E. coli BL21, purified (glutathione sepharose); not shown: GST, N-terminal, kept
T1 sequence (P30154 whole entry, the tested form may be a part, canonical isoform): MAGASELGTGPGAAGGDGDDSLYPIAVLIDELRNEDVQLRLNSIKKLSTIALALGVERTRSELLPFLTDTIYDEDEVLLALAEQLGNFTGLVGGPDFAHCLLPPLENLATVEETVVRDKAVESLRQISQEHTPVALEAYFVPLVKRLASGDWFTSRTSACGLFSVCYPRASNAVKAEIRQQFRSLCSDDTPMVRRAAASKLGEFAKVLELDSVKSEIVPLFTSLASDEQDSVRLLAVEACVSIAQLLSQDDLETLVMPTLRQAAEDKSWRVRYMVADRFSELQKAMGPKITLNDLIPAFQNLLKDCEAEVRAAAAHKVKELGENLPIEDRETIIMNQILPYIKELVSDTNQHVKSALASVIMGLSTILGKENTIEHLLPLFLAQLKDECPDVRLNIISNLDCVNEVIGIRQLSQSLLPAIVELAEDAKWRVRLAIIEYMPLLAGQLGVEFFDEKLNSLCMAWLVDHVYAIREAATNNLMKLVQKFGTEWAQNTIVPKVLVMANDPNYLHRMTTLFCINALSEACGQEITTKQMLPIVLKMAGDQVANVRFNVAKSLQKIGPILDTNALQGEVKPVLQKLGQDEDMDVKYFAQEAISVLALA

[2] = target: T2, GST-tagged GCN1 7-HEAT repeats (Translational activator GCN1), 1402–1715 aa (UniProt Q92616 1402-1715)
T2 construct: Expressed from pGEX-6p-1 as N-terminal GST fusion; detected by an antibody against the GST tag; source: E. coli BL21, purified (glutathione sepharose); not shown: GST, N-terminal, kept
T2 sequence (Q92616 1402-1715): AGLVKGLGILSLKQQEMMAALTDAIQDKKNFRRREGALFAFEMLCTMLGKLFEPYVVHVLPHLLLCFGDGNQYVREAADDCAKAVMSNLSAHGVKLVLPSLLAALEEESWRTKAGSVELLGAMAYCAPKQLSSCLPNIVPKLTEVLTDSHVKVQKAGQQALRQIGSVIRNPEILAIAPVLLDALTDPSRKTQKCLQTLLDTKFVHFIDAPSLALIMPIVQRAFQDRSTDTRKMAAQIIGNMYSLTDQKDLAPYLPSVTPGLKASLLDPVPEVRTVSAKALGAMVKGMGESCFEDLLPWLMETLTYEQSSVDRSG

[3] = target: T3, GST-tagged DNAPK single HEAT repeat (DNA-dependent protein kinase catalytic subunit), 276–331 aa (UniProt P78527 276-331)
T3 construct: DNA-dependent protein kinase catalytic subunit, single HEAT repeat, residues 276-331; Expressed from pGEX-6p-1 as N-terminal GST fusion; detected by an antibody against the GST tag; source: E. coli BL21, purified (glutathione sepharose); not shown: GST, N-terminal, kept
T3 sequence (P78527 276-331): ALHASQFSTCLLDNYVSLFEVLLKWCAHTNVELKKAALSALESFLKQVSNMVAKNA

[4] = target: T4, GST-tagged IMB1 single HEAT repeat (Importin subunit beta-1), 396–459 aa (UniProt Q14974 396-459)
T4 construct: Importin subunit beta-1, single HEAT repeat, residues 396-459; Expressed from pGEX-6p-1 as N-terminal GST fusion; detected by an antibody against the GST tag; source: E. coli BL21, purified (glutathione sepharose); not shown: GST, N-terminal, kept
T4 sequence (Q14974 396-459): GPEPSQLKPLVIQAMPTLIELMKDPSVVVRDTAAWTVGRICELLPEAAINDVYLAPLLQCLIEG

[5] = target: T5, GST-tagged β-catenin 12-ARM repeats, 135–664 aa (UniProt P35222 135-664)
T5 construct: β-catenin, 12-ARM repeats, residues 135-664; Expressed from pGEX-6p-1 as N-terminal GST fusion; detected by an antibody against the GST tag; also called β-catenin ARM repeats; source: E. coli BL21, purified (glutathione sepharose); not shown: GST, N-terminal, kept
T5 sequence (looked up): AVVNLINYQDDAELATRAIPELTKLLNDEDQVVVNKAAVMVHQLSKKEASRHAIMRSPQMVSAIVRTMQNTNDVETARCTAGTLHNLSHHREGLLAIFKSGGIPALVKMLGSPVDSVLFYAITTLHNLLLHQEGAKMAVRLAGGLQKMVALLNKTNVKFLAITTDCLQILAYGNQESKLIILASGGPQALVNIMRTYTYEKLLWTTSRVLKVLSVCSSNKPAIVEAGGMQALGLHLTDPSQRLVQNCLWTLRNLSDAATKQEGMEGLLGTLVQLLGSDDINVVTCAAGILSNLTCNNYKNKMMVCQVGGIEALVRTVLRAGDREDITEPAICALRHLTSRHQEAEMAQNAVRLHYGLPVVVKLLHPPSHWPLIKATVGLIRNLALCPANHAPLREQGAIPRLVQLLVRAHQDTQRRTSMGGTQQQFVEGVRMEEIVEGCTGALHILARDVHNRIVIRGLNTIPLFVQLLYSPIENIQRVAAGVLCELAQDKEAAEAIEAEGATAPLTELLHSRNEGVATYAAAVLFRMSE

Measured: binding result

B1: H3 1–20 peptide myristoylated on lysine 9, …(myr)…-K(Biotin) (peptide)
peptide: not shown
modifications: myristoyl-lysine at 9; biotin on the added C-terminal lysine
notes: histone H3, residues 1-20; added C-terminal lysine that carries the biotin, K(Biotin); Peptides with K(Biotin) were synthesized on ChemMatrix Rink amide resin, so the C-terminus is probably an amide (surmised); also called H3K9myr; source: synthetic peptide; not shown: biotin (on an added C-terminal lysine), C-terminal, kept
binds: [1] | [2] | [3] | [4] | [5]

— article PMC6775327, “Binding to medium and long chain fatty acyls is a common property of HEAT and ARM repeat modules” (Scientific Reports, 2019)
